# Screen size: about 310,000 compounds; about 14,000 (4.5%) showed an effect of 50% or more. The effect is printed as a negative number. This is one part of the list.
# Biological target: human ether-à-go-go-related gene (hERG) potassium channel (human, UniProt Q12809)
# Assay: primary screen, population patch clamp on CHO cells stably expressing hERG
# 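Also: peak tail current of the secondary pulse compared with the same well before compound.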
# human ether-à-go-go-related gene (hERG) potassium channel, sequence (Q12809 whole entry, looked up): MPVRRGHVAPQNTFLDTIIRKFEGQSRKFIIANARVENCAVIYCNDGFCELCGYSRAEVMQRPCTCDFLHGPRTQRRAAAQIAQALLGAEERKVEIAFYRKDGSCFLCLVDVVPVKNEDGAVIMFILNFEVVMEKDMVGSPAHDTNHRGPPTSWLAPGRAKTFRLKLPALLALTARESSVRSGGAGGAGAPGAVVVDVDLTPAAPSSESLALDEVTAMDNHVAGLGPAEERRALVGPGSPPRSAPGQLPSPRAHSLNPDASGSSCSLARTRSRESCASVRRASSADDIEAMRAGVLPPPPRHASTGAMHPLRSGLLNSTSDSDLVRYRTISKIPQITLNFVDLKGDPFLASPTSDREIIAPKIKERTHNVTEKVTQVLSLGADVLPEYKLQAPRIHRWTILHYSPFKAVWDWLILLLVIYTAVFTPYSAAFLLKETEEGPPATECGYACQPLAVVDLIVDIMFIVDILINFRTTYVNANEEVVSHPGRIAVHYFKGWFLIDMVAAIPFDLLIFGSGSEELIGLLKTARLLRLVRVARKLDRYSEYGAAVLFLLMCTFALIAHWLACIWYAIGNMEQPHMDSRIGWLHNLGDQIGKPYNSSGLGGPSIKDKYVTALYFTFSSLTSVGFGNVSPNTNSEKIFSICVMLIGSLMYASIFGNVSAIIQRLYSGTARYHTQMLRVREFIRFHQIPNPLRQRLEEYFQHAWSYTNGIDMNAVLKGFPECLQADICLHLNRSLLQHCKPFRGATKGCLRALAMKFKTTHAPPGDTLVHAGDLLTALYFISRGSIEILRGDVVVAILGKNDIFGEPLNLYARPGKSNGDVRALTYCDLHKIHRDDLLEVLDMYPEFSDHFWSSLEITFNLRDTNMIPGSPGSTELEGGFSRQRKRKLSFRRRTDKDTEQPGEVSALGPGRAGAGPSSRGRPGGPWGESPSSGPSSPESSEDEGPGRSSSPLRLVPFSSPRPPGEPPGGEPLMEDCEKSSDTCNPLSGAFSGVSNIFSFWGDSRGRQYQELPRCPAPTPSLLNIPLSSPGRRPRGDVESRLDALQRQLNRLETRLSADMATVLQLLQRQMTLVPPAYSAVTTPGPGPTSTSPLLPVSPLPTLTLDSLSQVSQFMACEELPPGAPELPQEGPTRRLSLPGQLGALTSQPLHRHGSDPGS
row,Compound,"hERG current change (%, negative = inhibition) at 10uM"
1,CC(=O)Nc1ccc(NC(=O)C2CCCN(S(=O)(=O)c3ccc(Cl)cc3)C2)cc1 (centres unmarked),22.1%
2,Cc1cccc(Nc2ncccc2C(=O)NCc2cccs2)c1C,-9.66%
3,CC(NC(=O)C1CCC1)c1ccccc1 (centres unmarked),14.9%
4,COC(=O)C(CC(=O)c1ccc(C)cc1)n1nc(C)cc1C (centres unmarked),4.37%
5,CCOC(=O)[C@H]1[C@H]2COc3ccc(C)cc3[C@@H]2N2C(=O)c3cc(Cl)ccc3NC(=O)[C@@]12C,12.1%
6,O=C(CN1C(=O)C2CC=CCC2C1=O)Nc1nc2ccccc2s1 (centres unmarked),-0.314%
7,O=C(COC(=O)c1nc(Cl)ccc1Cl)Nc1ccc(Cl)cn1,-16.1%
8,Cc1ccc(C(=O)Nc2nc3c(s2)CCCC3)o1,-7.5%
9,O=C(Nc1ccc2c(c1)OCO2)C1CC1(Cl)Cl (centres unmarked),3.77%
10,CCCC(=O)Nc1cccc(-c2cn3cccnc3n2)c1,-9.53%
11,Cc1ccc(O)c(C2=NCCNC(C(F)(F)C(F)F)=C2)c1,-34.1%
12,CNS(=O)(=O)c1cccc(C(=O)OCC(=O)/C=C2/N(C)c3ccccc3C2(C)C)c1,-22.4%
13,O=C(Nc1ccccc1C(=O)Nc1ccc2c(c1)OCO2)c1cccs1,3.6%
14,CN(C)C(=O)NC1C=CS(=O)(=O)C1 (centres unmarked),3.93%
15,Cc1cccc(NC(=S)N(CCCN2CCOCC2)C(C)c2cc3ccccc3o2)c1C (centres unmarked),-20.9%
16,COC(=O)c1ccccc1NC(=O)CN1C(=O)C2CCCN2c2ncc(Cl)cc21 (centres unmarked),-6.15%
17,Cc1cc(C)c2sc(N(CCCN(C)C)C(=O)c3ccc(S(=O)(=O)N(C)Cc4ccccc4)cc3)nc2c1.Cl,-13.5%
18,COc1cc(/C=C/C(=O)OCC(=O)NC(=O)NC(C)(C)C)ccc1OCC#N,3.78%
19,Cc1ccc(SCC(=O)NCCC2=CCCCC2)cc1,-5.25%

row,Compound,"hERG current change (%, negative = inhibition) at 10uM"
1,O=[N+]([O-])c1cccc(-c2nnc(SCc3cccnc3)o2)c1,-45.8%
2,COc1ccc(C2=CC(=O)C[C@H](c3ccc(F)cc3)C2)cc1F,-16.5%
3,Cc1c(-c2ccc(Br)cc2)[n+](=O)c2c(n1[O-])CCCCC2,8.14%
4,O=C(COc1cc(Cl)c(Cl)cc1Cl)NC(=O)NC1CCCC1,7.64%
5,Cc1ccc(S(=O)(=O)N2CCN(C(=O)Cn3nc(C)c([N+](=O)[O-])c3C)CC2)c(C)c1,-11.3%
6,O=C1N/C(=C/c2cccs2)C(=O)N1Cc1ccc(F)cc1,15.4%
7,CCC(C)NCCOc1cccc(Br)c1.O=C(O)C(=O)O (centres unmarked),-0.0286%
8,O=C1/C(=C\c2ccc(O)cc2)SC(=S)N1c1cccnc1,21.2%
9,CCOC(=O)c1c(S(=O)(=O)NCC(=O)N2CCN(c3ccccc3)CC2)c(C)n(C)c1C,-24.8%
10,COc1ccccc1C(=O)C1CCCN(C(=O)c2cccc(-n3cccn3)c2)C1 (centres unmarked),-3.52%
11,O=C(CNC(=O)c1ccc(Br)cc1)NCCc1nc2ccccc2[nH]1,-6.76%
12,Cc1cc(C)cc(NC(=S)NCc2ccc(F)cc2)c1,9.4%
13,CCc1cccc(CC)c1NC(=S)NCCc1c(C)[nH]c2ccccc12,-2.64%
14,COc1cccc(CNC(=O)c2cc(=O)[nH]c3ccc(S(=O)(=O)N4CCOCC4)cc23)c1,9.73%
15,CC(OC(=O)c1ccccc1Oc1ccccc1)C(=O)NC1CC1 (centres unmarked),18.9%
16,CN(C)C(=O)COC(=O)[C@H](Cc1ccccc1)NC(=O)c1ccco1,7.23%
17,CC(CCc1ccccc1)NC(=O)C1CCCN(c2nnc(-n3cccc3)s2)C1 (centres unmarked),-11.2%
18,CCOC(=O)C1=C(C)OC(N)=C(C(=O)OC)C12C(=O)Nc1ccc(Br)cc12 (centres unmarked),19.2%
19,CC1CCN(C(=O)CSc2nnc3ccc(-c4cccnc4)nn23)CC1,-21.8%

row,Compound,"hERG current change (%, negative = inhibition) at 10uM"
1,NS(=O)(=O)c1ccc(CNC(=O)c2ccc(S(=O)(=O)C(F)F)cc2)cc1,3.5%
2,CCOc1cc(/C=N/NC(=O)COc2nc(C)cc(COC)c2C#N)ccc1O,-10%
3,O=C(CSc1nc2ccsc2c(=O)n1Cc1ccc(C(=O)O)cc1)NCc1ccco1,2.08%
4,Cc1ccc(S(=O)(=O)CC(=O)N2CCN(c3cccc(C(F)(F)F)c3)CC2)cc1,-50.4%
5,COc1cc(/C=C/C(=O)N2C(=O)c3cccc(N)c3C2=O)cc(OC)c1OC,0.941%
6,Cc1ccc(S(=O)(=O)N(C)N=O)cc1,12.7%
7,Cl.Nc1ccc(CCN2CCCC2)cc1,10.2%
8,CS(=O)(=O)N1N=C(c2cccs2)CC1c1ccccc1 (centres unmarked),-11.3%
9,O=C(CCc1nnc(-c2ccsc2)o1)NCc1ccccc1OC(F)(F)F,3.76%
10,Cc1ccc(S(=O)(=O)NCCC(=O)NNC(=O)COc2ccccc2Cl)cc1C,-1.77%
11,O=C(N/N=C/c1c(F)cccc1Cl)c1cc(C2CC2)[nH]n1,24%
12,COc1ccc2[nH]c(=O)c(CN(CCCN3CCOCC3)C(=O)NCc3ccccc3)cc2c1,8.39%
13,Cc1nc(C(=O)NC(C)C)nn1-c1cc(Cl)cc(Cl)c1,18.1%
14,N/C(COc1cccc(C(F)(F)F)c1)=N\NC(=O)c1cccnc1Oc1ccccc1,-33.5%
15,COc1ccc(N2C(=O)CC(Sc3nc4c(cc3C#N)CCC4)C2=O)cc1 (centres unmarked),21.3%
16,COc1cccc2c3c(c(C)nc12)CCN3c1ccccc1,-54.6%
17,CCOc1ccccc1Oc1coc2cc(OCC(=O)O)ccc2c1=O,24.3%
18,COc1ccc(C(=O)Nc2cc(=O)[nH]c3ncnn23)cc1,0.659%
